The supplement of paper PMC11417369
This is one part of the list.

Each sequence was assayed on PF3D7_0420300 AP2 domain 1 (GST-tagged) (assay: gcPBM binding intensity (ln(normalized median fluorescence intensity)); higher = stronger DNA binding).
Method in brief: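 Using an Agilent 4 × 180k array, primer-extended double-stranded 36-bp intergenic genomic probes and negative controls were exposed for 1 h to GST-fused P. falciparum DNA-binding domains expressed in E. coli. Binding was carried out in 1× PBS with 1% milk, 0.2 mg/ml BSA, 0.5% salmon testes DNA and 0.03% Triton X-100, and protein was detected with Alexa488 anti-GST antibody and a 488 nm scan. Binding intensity is the highest Masliner-normalised natural-log median intensity across replicate spots of either probe orientation.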

Row | Sequence | gcPBM binding intensity (ln)
1 | AAATGTATACACATGGTGCGTAATATATTATATATA [GTGCAC_site9877] | 9.24
2 | CTACCAAATCTATAGACACACATATATATATATATT [CACACA_site2486] | 9.39
3 | TATATAATATTACGTTGTACACTTTAATCTCCCTTC [XGTACX_site5577] | 9.31
4 | ACCATTTGAAAATTCACACACTTTATTTTGTTATAT [CACACA_site5976] | 9.77
5 | ACTAATATGCAATATTGTACATATATATAGAAATAT [XGTACX_site5273] | 9.22
6 | TATAATCAATGCCAAAGTACATATTAATATATTTAT [XGTACX_site4558] | 9.21
7 | ATTGAAAAATAAAAATGTACACATGTAGCATACCAT [XGTACX_site3275] | 9.45
8 | AATATATCGCATAGTTGTACAGAATTTTTACTTTTA [XGTACX_site8192] | 9.29
9 | TAAGTTTGTCAATCAACACACACCTATTTATTATAT [CACACA_site3919] | 9.58
10 | CACTTTAATTTATGCACACATATGGAACAACAGCCA [CACACA_site994] | 9.44
11 | CTTAAAATGATAATATGTACACATAAATAATATATA [XGTACX_site8330] | 9.24
12 | TTTTTTGACATTCCTTTTAATAATTAACGAAAGGCA [GTGCAC_negctrl_site377] | 8.78
13 | AAATGATATAAATTATAAAATGGATTTTTTCCATTG [CACACA_negctrl_site420] | 8.98
14 | TTTAAAAATTAATTCTGTACACATTTTTATTATATT [XGTACX_site4212] | 9.43
15 | ATTCCTGGACCGTTCATGCACTTGCAGAACGTCCAT | 8.99
16 | TTTATGAAATGTTGCACACAAAAAACAACATGTTTT [CACACA_site1440] | 9.25
17 | AAAAAAAAAAAAAGTGCACACGATTTAAGGCCTATA [CACACA_site2823] | 9.48
18 | ATAAAATTTTATATGGGTACATAATATAATATATAT [XGTACX_site8160] | 9.21
19 | ATATATATATATATATGTACACATATATTTCTTTTC [XGTACX_site3443] | 8.95
20 | ATATATAATTCCCAAGTGCATTTATTTTAATTATTA | 9.38
21 | TTCATTCAAATCCAAGCATGCTTTATTAAAAAATTA [TGCATGCA_site567] | 8.82
22 | TACGCCTATAACGGCTGTACACCTTACTTTTTTTAA [XGTACX_site6818] | 9.31
23 | TATGATTTTTATATATGTACGTATGGTGTTTTACAA [XGTACX_site6100] | 9.21

Row | Sequence | gcPBM binding intensity (ln)
24 | AATAAATTTCAAAATTGTACTCATTTCCTTTCCCAA [XGTACX_site5887] | 8.98
25 | TGTGAAATAAAATTTGTACACACATATATATATATA [CACACA_site8093] | 9.26
26 | TTCTTCTGTTTTATTACACACCATTTTGTGTCTACA [CACACA_site8643] | 9.87
27 | CTCTATATATTATTATGTACTAAATGTATGTATGTA [XGTACX_site7151] | 9.32
28 | TAACACACTAAGAAAAGTACTGATTAATATAATTTT [XGTACX_site5536] | 9.34
29 | ATGAATGAATAAAGAAGTACGGAAATATTAACAAAA [XGTACX_site4695] | 9.63
30 | AAAACACAATTTATTACACACATATATTATATATTA [CACACA_site1420] | 9.49
31 | ATAACATACATAACAACACACAATATTTATCTGTAT [CACACA_site4279] | 9.78
32 | ATATTTAGAATGTTCCTACACACCAAATTTAAGTGG [CACACA_site2346] | 9.29
33 | TTTATTTTACAAAAAAGTACAAGAAGAAATATCAAT [XGTACX_site7812] | 9.19
34 | TATTAAAAGTAAAAAACACACATGGATAAATACATA [CACACA_site6048] | 9.73
35 | AATGATATATTATAAACACACAAAGATGGATATATA [CACACA_site7349] | 9.63
36 | TTATATATAAATGAAAGTACAAAACAGGAAAGAATA [XGTACX_site1076] | 9.78
37 | ATATATAATATATGTGGTACGCAAAATATTATATTA [XGTACX_site4969] | 9.27
38 | TTTATATTATAATATAATAATGATCTTAATTTTTTT [XGTACX_negctrl_site100] | 8.91
39 | TCAATATACCAAAAATGTACAAAAAATAAACAATAT [XGTACX_site8251] | 9.61
40 | GAACATTTCACATGGTGTACTCTCTTTTTCAAATAA [XGTACX_site1632] | 9.13
41 | ATTAATCCAAATGAATGTACTTAATAATGTAATTAT [XGTACX_site8946] | 9.08
42 | ATTTTATAATTTATATCACACACATATATATATAGT [CACACA_site7885] | 9.49
43 | TGTTTATAAATATAAAAAAATATATATATATATTAT [GTGCAC_negctrl_site247] | 8.88
44 | CAAAATTAATAAGTCACACACACATCTATAATATAT [CACACA_site6519] | 10
45 | TTCTTTATTTTTTCTACACACATTAGATATTCAAAG [CACACA_site7624] | 9.68
46 | TATATATATATATTCACACATAAGATGAATAAAGTG [CACACA_site4225] | 9.29

Row | Sequence | gcPBM binding intensity (ln)
47 | ACCATAACATGAATTACAGGAATTGAAAATGTTCCA [CACACA_negctrl_site649] | 9.09
48 | GTATTATATATAAAAGTGCATATTTTTTTCCCTTAC | 9.15
49 | GGTTACATTTTATTTTGTACATAAAAATTTTTATTT [XGTACX_site218] | 9.41
50 | ATGAGTATACTAAGAACACACAAGTTACTTGGTGTT [CACACA_site4981] | 9.46
51 | TTTTTTATTATTATGTGTACGAATATGTGCATATAA [XGTACX_site1364] | 9.13
52 | TATAACAAGTAATGTTGTACATTATATTATGTAATA [XGTACX_site2769] | 9.06
53 | TAAAAAAAAAAAATGTGTACATATTATATATATCTT [XGTACX_site2615] | 9.14
54 | TTTTTTCTCTATATATGTACATATAAAAAATATATC [XGTACX_site6382] | 8.92
55 | GTTACACAAACAAACACACACACACGCACGCACAAA [CACACA_site7191] | 10.1
56 | CATATTATTTAAACATGTACTCACATATAAATATAA [XGTACX_site6096] | 9.11
57 | AAATAAAGCACACCGACACACACATATATATATATA [CACACA_site8256] | 9.77
58 | TATATATATGTATACACACATACAAATATGTAAAAA [CACACA_site3720] | 9.46
59 | TTTCAATACTGAAACTGTACTTGTTTTACTTCTATT [XGTACX_site5924] | 9.38
60 | CGAAATCATATGTACACACACATATATATATATATA [CACACA_site2151] | 9.68
61 | TTATAATTTTTTTTTGCATGTGGGTTTTTTTTTGTT [TGCATGCA_site968] | 9.78
62 | TCATCATATTATATATGTACATATATAATAATTTAT [XGTACX_site1625] | 9.07
63 | AAATAATTAAAAAAAAGTACACATGTGACTACATAT [XGTACX_site8767] | 9.4
64 | ATTGTATCTGTATATGCACACAATATCTGTACTTCT [CACACA_site5445] | 9.7
65 | ATATATATTATATGCACACTTATATTTCATTAGATT [CACACA_site2599] | 9.41
66 | ATAAAGAAACATATATGTACTTATATATATATATAT [XGTACX_site5625] | 9.19
67 | TATTCGAAAGAATAGGCATGCAAACATATCTTATTA [TGCATGCA_site147] | 9.11
68 | TTCTATATTATATATGCATGTGTTATTCTTATTTTC [TGCATGCA_site92] | 9.52
69 | AAACATATAAATCACGGTACACATTATTGAAAGTGT [XGTACX_site2966] | 9.61

Row | Sequence | gcPBM binding intensity (ln)
70 | TCATTCTAAATATAAACACACATAAATAAATACATT [CACACA_site5788] | 9.6
71 | CTTAGGTGTTCATAGAGTACAAATAAAAAAATAAGA [XGTACX_site2294] | 9.22
72 | ATATATATTTTAATAACACACATATATTATATTATA [CACACA_site4387] | 9.32
73 | ACGTTACATACATATACACACACATATATATATATA [CACACA_site8203] | 10
74 | TATATATATTATTATGCATGTAATAAAACAAATAAT [TGCATGCA_site625] | 9.33
75 | GGTGGTGGTGGGTGGGTGCTTCTATTATTATATTAT [GTGCAC_site9391] | 10.7
76 | GATGTTTCTATTTTAGTGCATTTTAAATAAATAAAT | 9.09
77 | ATTTCTTCTTTTTTTGTGAAACTGGAATATATATAT [XGTACX_negctrl_site527] | 9.16
78 | CGGAAAAATTAAAGCACACAAAAAAAAATAAAAAAA [CACACA_site1133] | 9.62
79 | TTTTATTAATATTGCATGCACACTATATAATAATTG [CACACA_site1049] | 9.38
80 | AATATTTCTTTAATTTGTACATATAAGGGAAAATAA [XGTACX_site6221] | 9.09
81 | TTTTTATTATTTTAAAGTACTCTTTAGTAATTCCCT [XGTACX_site5863] | 9.04
82 | AAAAAACATACATACACACACATAAATATTTATATT [CACACA_site7300] | 10.1
83 | CACAGATAAATTAACACACACACACCGATATATATA [CACACA_site6049] | 10.2
84 | AGTAATTATTTTAGAGTGCATAGTTTTTTAATAAAT | 9.13
85 | AAATATATTTTTAATAGTACAATATGAAAATTTCAT [XGTACX_site2562] | 9.1
86 | CACCATGTTAACAATACATGCATCACTATATAAATG [TGCATGCA_site36] | 9.23
87 | AAAAAAAAGGAAATAACACACATGTATATATTTATA [CACACA_site1606] | 9.44
88 | GTACACATATATATATATATATATATATATATATAT [CACACA_negctrl_site800] | 9.25
89 | TTTTTTTTTTTTTTTTGTACTCATACATACTATTAT [XGTACX_site989] | 8.85
90 | TAATTTTCATGTTCATGTACTTAAATATAAGGTAAA [XGTACX_site3284] | 8.89
